# The other results are listed elsewhere or left out.
# B1: 9552617_9559936_1471_CDS_ENSMUSG00000048264_ENSMUST00000174552|mouse|control|control (ssRNA)
# RNA: GGGAGUUCUACAGUCCGACGAUCACUUCGUGUCCAUAGUUUGCCAUAAGUGAGGAUGUACAGGGGCUUUCCAUUUGUGUCCAUGGUGGUCAGGCAGGGGGCCUUCGGGGAGAUGGUCCCCCAUCGUUGUAGUGCAGCUUCUAACAACAGAGGAUUGAGCAUCA
# B2: chr11:52220846:52220847:+_ENSMUSG00000036275_ENSMUST00000036952|mus_hu|FALSE|FALSE (ssRNA)
# RNA: GGGAGUUCUACAGUCCGACGAUCAAAAGUAGCAUCACUAAUACUUCCAGAAGAAGCAUAAUAAAUCUAAAACAAUAAAAACUAACAGUGUAAAUAUAAGGUAAUGUUUAACUCACAUUUUGGACACCUGAUUAAACUCAGCUCCAACAGAGGAUUGAGCAUCA
# B3: chrX:71549400:71549401:+_ENSMUSG00000019087_ENSMUST00000019231|mus_hu|mus_mus_mus_hu_False|68_78 (ssRNA)
# RNA: GGGAGUUCUACAGUCCGACGAUCGCAGUAGGAAGAGGGAAGCUCUUCAGUCCAGUGGUCACAAAACAGAAACAUGAACAACACGGACACCGUCCCACCCUCAACCCCCCCACUGGCACAGGGUCACACAAUCUGGGUCAAAGACAACAGAGGAUUGAGCAUCA
# B4: chr2:232320318:232320319:-_ENSG00000115053_ENST00000322723|hu_hu|hu_hu_hu_mus_True|18_18 (ssRNA)
# RNA: GGGAGUUCUACAGUCCGACGAUCACUAUUAAAGUCUACAAAACCAAACCCUUUGGAAGAACCAGUUUCCCGAUCAGUGACUAUUCUUGCACGAACAGAGCCCUCAAAUGAUUCUUUUAAUGUCUCUUCAGUGGUAUCCUCAGACAACAGAGGAUUGAGCAUCA
# B5: chr12:111931289:111931290:-_ENSMUSG00000021270_ENSMUST00000094361|mus_hu|FALSE|FALSE (ssRNA)
# RNA: GGGAGUUCUACAGUCCGACGAUCGAUAUAAUAGAUAUGUUUCUGGUUCUCCUUCAUUCUGGUGCAGUAGUCCUUGAGAGAAACCAUCUCAUCACCAGAGGCAGAUGUGUAGUACCUUAACAGCUCUGAAAGCUUCUUCCGAUUCAACAGAGGAUUGAGCAUCA
# B6: chrX:140365796:140365797:-_ENSMUSG00000031285_ENSMUST00000033642|mus_mus|mus_mus_mus_hu_False|18_78 (ssRNA)
# RNA: GGGAGUUCUACAGUCCGACGAUCCUUCUCAUUACUCAGUGCCUGCAAGGUUCUGGUUCUGUAGAAGCUACAGUGGGCGCUGUGAGUGGGGCUAGGCAACCCAUUCAUCCGGGAGCCUCUCAUAUUUCUGGAUGUCUUAUCUCUCAACAGAGGAUUGAGCAUCA
# Target: T1, UNK ZnF1-3 (human, UniProt Q9C0B0 31-174)
# T1 sequence: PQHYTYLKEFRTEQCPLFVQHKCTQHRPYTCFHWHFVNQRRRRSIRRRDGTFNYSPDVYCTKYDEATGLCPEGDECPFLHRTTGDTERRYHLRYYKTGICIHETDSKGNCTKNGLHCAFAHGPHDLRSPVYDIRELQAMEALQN
# Assay: nsRBNS (natural sequence RNA bind-n-seq); RBNS binding buffer (assumed for nsRBNS): 25 mM Tris pH 7.5, 150 mM KCl, 3 mM MgCl2, 0.01% Triton X-100, 500 ug/ml BSA, 20 U/ml SUPERase-In, 4 C; UNK is unkempt and MSI1 is Musashi-1; names of the RNAs are library labels; protein concentration not given here; high values mean tight binding
row,Binder,binding signal
1,B1,1.21 enrichment R
2,B2,2.34 enrichment R
3,B3,1.52 enrichment R
4,B4,0.937 enrichment R
5,B5,0.697 enrichment R
6,B6,0.609 enrichment R
